This is an account of results in PubChem BioAssay AID1956 (SRMLSC, 2009).

Some of the results follow. Further columns of the screen follow, without active or inactive calls.

A short description of this assay: compounds boosting herpes simplex virus growth – fold increase, host cell viability (AID 1956). Also: tested in PC3 cells. Conditions: HSV replication augmentation in cells; fold increase: measured here: primary screen fold increase 10 uM, at 10 µM, stronger effect = higher value; viability: measured here: host cell viability series, at 25 µM, stronger effect = lower value.
`C=CCOc1cccc(C2c3c(oc4ccc(F)cc4c3=O)C(=O)N2CCCN2CCOCC2)c1` (stereo unspecified): the fold increase amounted to 1.35 and the viability was found to be 98.2%.
For the molecule `CCCCn1nc(-c2ccccc2)c2nc3ccccc3nc21`, the fold increase came to 2.32 and the viability stood at 99.2%.
In the case of `CCOCCCNC(=O)CN1C(=O)C(CC)Oc2ccccc21` (stereo unspecified), the fold increase came to 1.33 and the viability stood at 90.1%.
On the same counts, the results for `N#Cc1c2c(c(=S)n(-c3ccccc3)c1N)CCCC2` are 1.39 and 94.4%.
For `C[C@@H]1CN(Cc2nc(Cc3ccccc3F)no2)C[C@H](C)O1` the same measures were 1.73 and 99.5%.
As for `O=C1/C(=C/c2c[nH]c3ccccc23)CCC/C1=C\c1c[nH]c2ccccc12`, the fold increase came out at 1.5.
Take `Cc1oc(C)c2c(=O)ccc3c(c12)OC(N)=C(C#N)C3c1ccc(F)cc1` (stereo unspecified): the fold increase turned out to be 10.3 and the viability came out at 80.7%.
For `CCN1CCc2c(sc(NC(=S)NC(=O)c3ccc(Cl)cc3)c2C(N)=O)C1`, the fold increase is 1.67 and the viability is 91.4%.
`Cc1ccc(/C=C/c2nc3ccccc3[nH]2)o1` registered a fold increase of 1.55.
Take `COc1ccc(N=Cc2c(O)c3ccccc3n2C(C)=O)cc1`: the fold increase came out at 2.57 and the viability was determined as 91.5%.
As for `CCCCCCc1cc2cc(C(=O)NC)c(=N)oc2cc1O`, the fold increase was found to be 1.65 and the viability stood at 92.7%.
Regarding `CCOC(=O)c1c(C)nc2sc(C(=O)Nc3ccc(C(C)=O)cc3)c(N)c2c1-c1ccc(OC)cc1`, the fold increase was determined as 1.12.
On to `CCOC(=O)Cn1c(=O)c(-c2cc(Br)ccc2N)nc2ccccc21`, for which the fold increase was 1.33 and the viability was 91.1%.
In the case of `CC(C)N(C(=O)N1CCC(c2nc(-c3ccncc3)no2)CC1)C(C)C`, the fold increase came to 1.36 and the viability was 73.4%.
For `OC1(c2ccc3c(c2)OCO3)CCN(Cc2ccccn2)CC1` the same measures were 1.44 and 103%.
Consider `COc1cc(/C=C(/C#N)c2nc3ccccc3[nH]2)ccc1OC(=O)c1ccco1`, for which the fold increase was found to be 3.06 and the viability amounted to 84%.
Turning to `COC(=O)c1ccc(-c2noc(CN(C)CCC3CCCCO3)n2)cc1` (stereo unspecified), the fold increase was 1.39 and the viability worked out at 92.2%.
For `CCOc1cccc(=O)c2c(C)n(-c3ccc(C(=O)O)cc3)c(C)c12` the same measures were 1.61 and 98.4%.
As for `COc1cccc(OC(C)c2ccnc3nc(/N=C/N(C)C)nn23)c1` (stereo unspecified), the fold increase came to 1.34 and the viability is 96%.
For `Cc1c2ccccc2nc2c(F)c(NC(C)C)c(F)c(F)c12` the same measures were 1.41 and 89.2%.
On the same counts, the results for `CSC1=NSC2=NC(=O)/C(=C\c3coc4ccccc4c3=O)C(=N)N12` are 2.23 and 90.7%.
For `CCN(CC)c1ccc(/C=C/c2cc(-c3ccccc3)c3ccccc3n2)cc1`, the fold increase was 4.66 and the viability is 95.3%.
In turn, `O=C1CC(c2ccccc2Cl)=NN(c2ncnc3ccccc23)C1=O` showed a fold increase of 1.62.
`CCOc1cccc(=O)c2c(C)oc(C)c12`: the fold increase worked out at 2.6 and the viability came to 96.5%.
As to `CCOC(=O)C1=C(C)NC(=O)NC1c1ccc(N2CCC(c3ccccc3)=N2)cc1` (stereo unspecified), the fold increase is 1.44 and the viability was 91.9%.
Molecule `C=CCN1C(=O)/C(=C/c2ccc(O)c(OC)c2)S/C1=N/c1nccs1` displayed a fold increase of 7.3.
Regarding `COc1cc(/C=C2/SC(=S)N(C)C2=O)ccc1OC(=O)c1ccco1`, the fold increase is 4.29 and the viability is 85.7%.
On the same counts, the results for `c1ccc2c(c1)nnn2Cc1nnc2sc(-c3ccncc3)nn12` are 1.43 and 99.1%.
As to `O=C(Oc1c(-c2ccco2)oc2ccccc2c1=O)c1cccnc1`, the fold increase was found to be 5.5 and the viability was 99.4%.
As to `Nc1c(C(=O)c2cccs2)sc2nsc(SCCN3CCCCC3)c12`, the fold increase was determined as 7.25.
Consider `O=C(N=c1ccn(-c2nc3ccccc3nc2NS(=O)(=O)c2ccc(Cl)cc2)cc1)c1cccs1`, for which the fold increase came out at 2.06 and the viability was 90.7%.
On the same counts, the results for `CCCN1C(=O)/C(=C\C=C2/C=CN(CC)c3ccccc32)SC1=S` are 1.82 and 86.6%.
On to `COc1ccc(N2CCN(S(=O)(=O)Cc3ccccc3)CC2)cc1`, for which the fold increase worked out at 1.53 and the viability turned out to be 105%.
On the same counts, the results for `Cc1cccc(NC(=O)c2sc3nc4c(c(-c5cccs5)c3c2N)CN(C)CC4)c1` are 1.32 and 90.3%.
Regarding `Nc1cc2c3c(cccc3c1)C(=O)N(CCN1CCCC1)C2=O`, the fold increase was 1.48.
`Cc1nnc(SCCN2C(=O)c3ccccc3C2=O)nc1C`: the fold increase stood at 1.32.
With `N#Cc1cc2c(nc1SCC(=O)Nc1sc3c(c1C#N)CCC3)CCCC2`, the fold increase was 1.24 and the viability worked out at 97.7%.
As for `COc1ccc(-c2nc(CSCC(=O)N3CCN(C4CCCCC4)CC3)c(C)o2)cc1OC`, the fold increase is 1.37 and the viability was 87%.
Turning to `CCn1c(SCC(=O)N2CCc3ccccc3C2)nc2sc(C)c(C)c2c1=O`, the fold increase stood at 2.06 and the viability came out at 94.3%.
Turning to `Cc1ccc(O)c(C(=O)c2cc(C#N)c3nc4ccccc4n3c2)c1`, the fold increase came out at 4.58 and the viability turned out to be 86.2%.
As for `CCCSc1nc2sc3c(c2c(=O)[nH]1)CCN(Cc1ccccc1)C3`, the fold increase amounted to 1.39.
Regarding `CC(C)Sc1nnc(Cn2c(=O)sc3ccccc32)n1-c1ccccc1`, the fold increase is 1.32 and the viability came to 98.1%.
As for `COc1cc(/C=C/C(=O)c2c(O)cc(C)oc2=O)cc(OC)c1O`, the fold increase came out at 1.32 and the viability was found to be 96.4%.
As to `COc1cc(/C=C(\C#N)c2nc3ccccc3[nH]2)ccc1OC(=O)c1ccco1`, the fold increase stood at 6.91 and the viability was 76.6%.
On to `COc1ccc(CN2C(=O)/C(=C/c3ccc(-c4ccc(Cl)c(C(=O)O)c4)o3)SC2=S)cc1`, for which the fold increase was determined as 2.82.
On to `Cc1cc(NS(=O)(=O)c2ccc(NC(=O)CSc3nc4ncc(Cl)cc4[nH]3)cc2)nc(C)n1`, for which the fold increase is 1.39 and the viability worked out at 101%.
Consider `CCc1ccc(CNc2ccc(N3CCN(C(C)=O)CC3)cc2)cc1`, for which the fold increase was 1.18.
In the case of `Cc1ccc(S(=O)(=O)NC2=NCN(CCOC(=O)c3ccccc3)CN2)cc1`, the fold increase is 1.34 and the viability was determined as 96.1%.
With `CC(=O)C1=NN(c2ccccc2)C(c2cccs2)N1c1ccccc1` (stereo unspecified), the fold increase was found to be 1.33 and the viability was determined as 84.4%.
Molecule `COc1cc(N2CCCC2)c(OC)cc1/C=C(/C#N)c1cccc(F)c1` displayed a fold increase of 1.98.
As to `COc1ccc(C2=CC(c3ccc(Cl)cc3)n3cnnc3N2)cc1OC` (stereo unspecified), the fold increase was 1.19 and the viability was found to be 93.7%.
On the same counts, the results for `CCn1c(C)cc(/C=C2/SC(=S)NC2=O)c1C` are 1.74 and 96.6%.
As for `Cc1ccc(Sc2ncccc2NC(=O)c2ccccc2Cl)cc1`, the fold increase was found to be 1.39 and the viability amounted to 98.3%.
Molecule `O=[N+]([O-])c1cccc(-c2ccc(/C=N/NC(=S)Nc3ccccc3)o2)c1` yielded a fold increase of 1.56.
For `O=c1c2ccccc2c(/C=N/NS(=O)(=O)c2ccccc2)c(O)n1-c1ccccn1`, the fold increase came out at 1.76 and the viability worked out at 90.8%.
`N#Cc1cc(Sc2ccccn2)c([N+](=O)[O-])cc1C#N`: the fold increase is 3.25 and the viability was determined as 94.2%.
Turning to `COc1ccc(OCC(=O)NNC(=O)Cc2coc3cc(OC)ccc23)cc1`, the fold increase is 1.37 and the viability turned out to be 97.5%.
Turning to `COc1ccc(Cn2c(O)c(/C=N/NC(=O)c3cccnc3)c3ccccc3c2=O)cc1`, the fold increase came out at 1.95 and the viability is 87.7%.
For `CCS(=O)(=O)Nc1cc(C(=O)OC)ccc1C(=O)OC` the same measures were 1.4 and 97.9%.
Regarding `CC1=CC(C)(C)Nc2ccc(OC(=O)CN3C(=O)c4ccccc4C3=O)cc21`, the fold increase turned out to be 1.78.

In general, viability refers to a read-out of living cells in per cent, often relative to untreated cells.
